Data reported in the supplement of paper PMC10126150.
Sequences with one replicate were seen in a single cluster, so their values are uncertain.

System: ATP
Experiment: switch fluorescence ratio, 500 uM ATP over buffer (Cy3 cluster intensity, sum of 5 cycles each) (fold (ratio)); higher = stronger signal-on switching upon ATP binding; sequences stand for … in TCGTCGGCAGCGTCAGATGTGTATAAGAGACAGTTTTTTTTTTTTTTTTTTTTTTTTT…TC
Conditions: aptamer strand: ATP DNA aptamer (quencher-CACCTGGGGGAGTATTGCGGAGGAAGG + anchor), 100 nM annealed; ATP concentration: 500 uM; one replicate
Procedure, shortened: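 Cy3-labelled switching-strand clusters on a modified Illumina MiSeq flow-cell were annealed to 100 nM quencher-labelled ATP aptamer and imaged first in selection buffer, then after 15 min with 500 uM ATP at 22 °C. NaOH stripping and re-annealing separated each of five buffer/ATP cycles, and clusters outside 100-1000 RFU were excluded. The fluorescence ratio sums target-cycle Cy3 intensity over buffer-cycle Cy3 intensity per cluster and averages it per switch-domain sequence.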
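Also: ATP exposure 15 min at 22 °C before imaging.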

Sequence | switch fluorescence ratio
GACACCGAAA | 2.57
TGCACGGCTC | 1.14
GTGTGTCTTT | 0.947
GATATGTTAG | 1.01
TATAGCGGCT | 1.05
GTGATCCGCT | 1.13
GCCCGAAAAT | 0.959
ATAAGCGATA | 1.19
GCGCTTTGCT | 1.05
CATGCTATGA | 0.982
GGAGTCAAGG | 1.1
TATAGTACTA | 0.96
TTAGCGCCT | 1.04
CCACGGATTG | 1.03
ATGCGGAAT | 1.01
AGGTCATCTA | 0.969
CCGTTTAAGG | 1
AGGTTGCAAC | 0.948
TACGGCCACC | 1.42
TCGGGACAGC | 1.07
TACACTAATA | 1.06
CGGTAAAGTG | 1
TCTTTAGAGT | 0.958
TCCTGTTACG | 1.01
TTATCGTT | 1

Sequence | switch fluorescence ratio
AATGCGCATT | 0.961
TAATCGGTCC | 0.962
ATAAGGTAAG | 1.01
CACACTAATC | 1.03
TCGGGCGCTT | 1.07
TTCGTCCACT | 1.04
CAGAAATCAT | 1.05
TCTTAAGCTG | 1.06
CAGGCACATC | 1.17
AATTCTATCT | 0.997
CGTATCTGCT | 1.05
TTGTGTGTCT | 0.966
GATGTTGAGT | 0.978
TACTCTTTGG | 1.03
TTCCGATGCC | 1.4
ATACTTGTGG | 1.01
TGCCAATCCA | 1.01
CCCAAGCATG | 1.5
CTTTCGTGTT | 1.01
GGGGGTTACT | 0.983
GGGGTGTCGC | 1.06
AGATTAAAGC | 1.07
AGCATTTTGT | 0.99
GCTCTCCCC | 2.41
TGGAATGTCG | 0.953

Sequence | switch fluorescence ratio
CACATGCAGG | 1.02
AAGTGGCGGA | 0.992
CGCCCGGGGA | 1.03
ATGGACAGGG | 0.976
AGAGGGTATT | 0.992
ACGCGTTGAA | 1.03
TACATAAGGC | 1.01
CGAGGCTGAC | 1.56
GGCGATGTAG | 1
AATGAACAGC | 1
GAAGTGCATG | 0.992
CTGGGGAAGT | 0.962
TAGTGTTTTC | 0.969
ATCGGTGACG | 1.01
CGACGTTATT | 1.39
AGATGGAACC | 0.987
GTCATATAAC | 1.06
TTGGTCCATA | 1.04
TCCGGTCGCA | 2.21
GATCCGGGAA | 1.05
GACATCCGTG | 1.05
ACGCGTTGGG | 0.933
GCTAATCGCA | 1.02
CTTCGCCAAA | 1.86
AATCAGGGCT | 0.997

Sequence | switch fluorescence ratio
TCTAGGTGGC | 1.08
CGTGTCTTCG | 1.02
CTTAATTGTC | 1.01
ATGTCGACGG | 1.03
AAGATTCTAA | 1.02
TAGCTACTAG | 1.03
GGGCTTTCGA | 1.01
AAGGTTTGGT | 0.963
TTGTATCTGC | 0.955
GTCCCCGTCT | 0.925
CAGTAGGGAT | 0.998
ATGGGATACG | 1.01
GGGAGTCGGT | 1.02
TGATTACATA | 1.01
CTGTTAATGG | 1.02
AAGCGATCTA | 1.03
GGCCGAATT | 1.03
TTCCTTTGTG | 1.01
GCGGCTTAGG | 1.02
AGTTAGTGCC | 0.986
CTGTGCCGGG | 0.961
GCATTGTTTC | 0.985
TCGACAAGTG | 1.23
AGCCTTTTT | 1.03
TAAGCTTTCA | 1.01

Sequence | switch fluorescence ratio
CGTAGATCGC | 1.07
GTTGATGGCT | 1.07
TAGTGGCCCG | 0.979
TCCTCCTGAC | 1.91
AAATACGTGG | 1
TGGGGGAT | 0.973
CCTTATGACC | 1.14
CGAGCCGTTC | 0.967
TCAAGCGTCC | 1.11
GTGGTTTCAT | 0.973
ACTCAAGCGG | 1.28
TGATTTGTAC | 1.06
TTTGGAAACA | 0.987
GGTAGGCGTG | 1.03
TATGCCAGAA | 0.962
CTAGGGGCGG | 0.984
GCCAGTTGCC | 1.03
TCCAGAAAGT | 0.996
CCCGTTACT | 1.24
TATCATTCAG | 1.07
GTTAAGAGAC | 1.02
TATAAACAAG | 0.997
TAGAAACTGC | 1.5
GAGCACTAAG | 1.02
GAGGTCGGCG | 1.02

Sequence | switch fluorescence ratio
GTACCACACA | 1.24
CCCTCGTACG | 1.08
TCTTAGTAAT | 1.02
GCCGTGGTTC | 1.03
TAAGTTGCAG | 0.995
AGTGTTTGGA | 1.06
AATATTGGTT | 1.24
GGGAAGTCG | 1.05
ACAGTAAGGC | 1.19
CAGGGGGGT | 1.03
CTCAGGGGGC | 1.03
CTTAGAGCAC | 1.02
GGCCTCATTT | 1
AAAAACGGA | 0.93
TAATCACATT | 1
ATTAACTCA | 1.03
ATGAGTAAAA | 1.02
GTTCAAATAA | 1.03
CCTACGTCCG | 1.74
AACTGCCTAA | 0.979
ATACCACTTG | 0.987
GTCACGTCCT | 0.992
CATGCATTCC | 1.68
GGCTGTACAG | 0.932
CAAGATTTGT | 1.03

Sequence | switch fluorescence ratio
CTCTCACCGC | 1.48
TAGAAGGCTC | 1.17
TAGATGAATA | 1.03
ATGTCAAGTA | 0.996
CGTACGTGCC | 1.02
GGTGATACAC | 1.03
CAGTAAGACT | 1.52
CCAGGGTCTC | 1.03
TTGTCTATGG | 0.981
CGCTACCAAC | 1.78
AGTGTTTGAG | 0.977
AATTGTGGAT | 1.26
TTCAATAATC | 1.65
ACAACCCAGC | 1.15
TTAACATGAC | 1.22
ATTAGTAGC | 0.995
ATTTGCAC | 1.02
CTACGAGGGG | 0.986
CGCATCAGAT | 1.01
CGGCCGGGTA | 0.954
TCTGTTCGGC | 0.949
GGGCGATGGA | 1.01
TATCAGGCGT | 1.05
TAATTTCGTT | 1.02
TCAGAAGCTA | 2.2

Sequence | switch fluorescence ratio
TGAGGATGAC | 1.04
TCTCTGACAT | 1.18
TGGTTCAGGA | 0.996
TTGAATACGG | 1.03
TACTTGTCAT | 1.03
AATTGCACTT | 1.06
CCCGGCAACT | 3.78
TGGTGTAATC | 1
CTGATAAAAT | 1.02
TTTGCGGCGA | 1.02
TCCTGAAGCC | 1.03
TAGGGCTTCT | 0.994
CGTCCTCTTT | 0.982
GACGGTAGAA | 1.08
CCAAGGTATA | 1.04
TTATCATAGC | 0.99
GGCGTTAGGC | 1
CTGCATAGAG | 1.08
AGTTGCATCA | 0.979
GCGGGGCCTC | 1.08
GATCTTTTAA | 1.02
GGCATAGGCA | 0.951
GACTAGAGGT | 0.969
TATTGGGACG | 0.968
TAAAAACTTT | 1.01
